Measured values reported in PMC4336329 (PLoS ONE, 2015).
Screen size: about 310,000 compounds; about 14,000 (4.5%) showed an effect of 50% or more. Effects have a minus sign here. The list shows a part of the results.

biological target: human ether-à-go-go-related gene (hERG) potassium channel (human, UniProt Q12809); experiment: primary screen, population patch clamp on CHO cells stably expressing hERG
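Further: peak tail current of the secondary pulse compared with the same well before compound.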

human ether-à-go-go-related gene (hERG) potassium channel, sequence (Q12809 whole entry, looked up): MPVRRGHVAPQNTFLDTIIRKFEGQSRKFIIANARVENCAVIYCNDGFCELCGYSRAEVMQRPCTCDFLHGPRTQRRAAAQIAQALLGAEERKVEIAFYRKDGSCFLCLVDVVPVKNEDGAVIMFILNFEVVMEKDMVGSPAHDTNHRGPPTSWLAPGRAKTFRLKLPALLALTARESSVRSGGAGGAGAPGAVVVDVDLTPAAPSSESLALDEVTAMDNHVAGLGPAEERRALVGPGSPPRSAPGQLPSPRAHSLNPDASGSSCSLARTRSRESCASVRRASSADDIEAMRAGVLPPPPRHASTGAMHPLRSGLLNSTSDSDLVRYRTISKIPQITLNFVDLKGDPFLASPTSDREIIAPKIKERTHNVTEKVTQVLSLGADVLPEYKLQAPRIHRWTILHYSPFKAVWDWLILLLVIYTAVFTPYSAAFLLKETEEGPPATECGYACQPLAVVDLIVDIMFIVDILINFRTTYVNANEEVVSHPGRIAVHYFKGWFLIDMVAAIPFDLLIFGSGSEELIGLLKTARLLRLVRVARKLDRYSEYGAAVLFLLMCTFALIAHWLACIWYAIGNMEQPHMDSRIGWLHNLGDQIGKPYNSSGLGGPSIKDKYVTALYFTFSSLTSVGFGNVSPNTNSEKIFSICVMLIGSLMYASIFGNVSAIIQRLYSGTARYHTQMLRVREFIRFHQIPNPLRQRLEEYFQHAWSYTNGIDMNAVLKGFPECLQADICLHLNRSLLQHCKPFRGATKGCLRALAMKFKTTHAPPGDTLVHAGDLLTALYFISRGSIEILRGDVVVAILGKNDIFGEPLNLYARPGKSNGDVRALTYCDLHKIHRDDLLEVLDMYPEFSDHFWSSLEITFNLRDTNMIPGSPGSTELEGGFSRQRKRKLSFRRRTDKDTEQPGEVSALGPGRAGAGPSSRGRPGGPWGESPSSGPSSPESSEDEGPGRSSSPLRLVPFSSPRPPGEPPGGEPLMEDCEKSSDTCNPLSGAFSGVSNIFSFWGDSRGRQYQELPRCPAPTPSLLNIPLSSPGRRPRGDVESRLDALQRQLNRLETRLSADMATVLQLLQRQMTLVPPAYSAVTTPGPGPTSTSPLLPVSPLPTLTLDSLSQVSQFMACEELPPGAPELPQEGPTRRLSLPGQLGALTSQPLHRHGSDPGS

Structure (SMILES)	hERG current change (%, negative = inhibition) at 10uM
CCOc1ccc(NC(=O)CN(C2CCCCC2)S(C)(=O)=O)cc1	-15.6%
COc1ccccc1-c1c(C#N)c(N)nc2c1CCc1ccccc1-2	37.4%
COc1ccccc1/C=C/CN1CCCC(CO)(Cc2cccc(Cl)c2)C1 (stereo not drawn)	-69.6%
COc1ccc(C(=O)COC(=O)CCC(=O)Nc2ccc(C(C)=O)cc2)cc1	6.24%
COc1ccc(C(=O)NCCc2cnc[nH]2)cc1OC	17.2%
Clc1ccc(C2=Nn3c(nnc3-c3cccnc3)SC2)s1	-11.7%
CC(=O)Oc1ccc(/C=C/c2nc3ccccc3c(=O)o2)cc1	20.2%
Cn1c(/C(C#N)=C(\O)CN2CCN(Cc3ccccc3)CC2)nc2ccccc21	-40.1%
CC(=O)C1=C(O)C(=O)N(Cc2cccnc2)C1c1ccc(C(C)C)cc1 (stereo not drawn)	17.1%
O=C(NCCCN1CCCC1=O)C1CCN(S(=O)(=O)c2cccc(C(F)(F)F)c2)CC1	1.22%
COc1ccc(CNC(=O)[C@H](CCSC)NC(=O)N2CCn3c2nc2ccccc23)cc1	-38.7%
O=C(CCCOc1ccc(Cl)cc1Cl)Nc1ccccc1C(=O)O	14%
CC1CC(C)CN(C(=O)CCNC(=O)c2ccccc2Cl)C1 (stereo not drawn)	1.26%
CCc1nnc(NC(=O)CSc2nc3cc(OC)ccc3cc2C)s1	3.85%
Cc1ccc2[nH]c(=O)cc(C(=O)OC(C)C)c2c1	-3.4%
COc1ccc(-c2cc(C(F)(F)F)nc(SCC(N)=O)n2)cc1	-0.382%
Cc1ccc(NC(=O)C(=O)c2cn(CC(=O)N3CCCCC3)c3ccccc23)cc1	-6.98%
COC(=O)c1ccc(OC(=O)c2ccc(OC)c(OC)c2)c(OC)c1	15.6%
Cc1ccc(C(=O)CN2C(=O)NC3(CCc4ccccc43)C2=O)c(C)c1 (stereo not drawn)	-19.3%
Cc1ccc(-n2ccn(CC(=O)NCCc3ccccc3)c(=O)c2=O)cc1C	6.32%
O=C1CC(N2CCN(c3cccc(C(F)(F)F)c3)CC2)C(=O)N1c1ccccc1 (stereo not drawn)	26.4%
CC(=O)Nc1ccc(OCC(O)CN2CCN(c3ccc(C)c(Cl)c3)CC2)cc1 (stereo not drawn)	-27.7%

Structure (SMILES)	hERG current change (%, negative = inhibition) at 10uM
COc1ccccc1C(=O)Nc1c(C(=O)N(CCN(C)C)Cc2ccco2)oc2ccccc12	-82.7%
COc1ccc(C(C)=O)cc1CS(=O)(=O)CC(=O)NCCc1c[nH]c2ccccc12	-10.6%
O=C(O)c1ccc(COc2ccccc2/C=C2\NC(=O)N(Cc3ccc(F)cc3)C2=O)cc1	6.56%
CSCC[C@H](N)C(=O)N1CCC(C(=O)N[C@H](C)C(=O)Nc2ccc(C(C)C)cc2)CC1	12.3%
COc1cc(/C=C2\SC(=Nc3ccc(O)cc3)NC2=O)cc(OC)c1O	2.49%
O=C(c1nsc(Cl)c1Cl)N1CCCCC1	-6.44%
Cc1ccc(C)c(S(=O)(=O)N2CCN(C(=O)c3n[nH]c(=O)c4ccccc34)CC2)c1	2.17%
O=C1/C(=C/c2cccs2)Cc2ccccc21	17.2%
NS(=O)(=O)c1ccc(CCNC(=O)C(=O)NCC2OCCN2S(=O)(=O)c2ccc(F)cc2)cc1 (stereo not drawn)	22.3%
COc1ccc(CC(=O)Nc2sc3c(c2C(N)=O)CCCC3)cc1OC	6.32%
O=C(NC1CC1)C1=C[C@H](c2ccc(C(F)(F)F)cc2)C[C@H](OCc2ccc(CO)cc2)O1	-42.7%
Cn1c(=O)c2c(SCc3ccccc3)nc(C3CC3)nc2n(C)c1=O	2.43%
CC1CCC(n2c(=S)[nH]c3ccccc3c2=O)CC1 (stereo not drawn)	9.43%
COc1ccc(NC(=O)CC2(CC(=O)O)CCCC2)cc1	11.3%
CCn1c(C)[n+](CC)c2ccc(C(=O)N(C)c3ccccc3)cc21.[I-]	37.4%
O=C(CCC(=O)N1CCSc2ccccc21)NCc1cccc(Cl)c1	-14.6%
CSc1ccccc1Sc1cc(C(=O)O)c2ccccc2n1	13.4%
CN(CCOc1ccc(Cl)cc1)C(=O)CN1C(=O)NC2(CCCC2)C1=O	-11.5%
C=CCN(c1ccccc1)S(=O)(=O)c1cccc(C(=O)N2CCN(c3ncccn3)CC2)c1	-33.9%
CC(C)(C)c1ccc(S(=O)(=O)N2CCN(CC(=O)NC(=O)NC3CCCCC3)CC2)cc1	-5.19%
NNc1nc2c(Cl)ccc(Cl)c2s1	18.6%
COc1ccc(/C=C(/Sc2nnc(-c3ccc(Cl)cc3)o2)C(=O)O)cc1	22.1%

Structure (SMILES)	hERG current change (%, negative = inhibition) at 10uM
Cc1cc([N+](=O)[O-])nn1CC(=O)NCc1ccc(Cl)cc1	-19.2%
CCOc1ccc(C(=O)NNC(=O)c2cc(S(=O)(=O)N3CCOCC3)ccc2Cl)cc1	-24.4%
COc1cccc(NC(=O)CNCc2ccccc2)c1.Cl	26.3%
Cc1ccc(S(=O)(=O)NNC(=O)c2sc3nc(C)cc(C)c3c2-n2cccc2)cc1	-9.46%
COCc1cc(C)nc(SCC[N+](C)(C)CC(=O)Nc2ccccc2)c1C#N.[Cl-]	4.03%
CCN1CCN(Cc2oc(CO)cc(=O)c2O)CC1	-4.6%
O=C(NCc1cccnc1)C1CCN(S(=O)(=O)N2CCC3(CC2)OCCO3)CC1	-11%
CNc1ncc(C(=O)c2ccccc2)s1	-1.56%
O=C(CSc1nnc(-c2cccnc2)n1CCN1CCCCC1)Nc1cccc(Cl)c1	-79.8%
CCc1ccc(C(=O)NCc2cccs2)s1	-6.35%
CCc1ccc(/C=C2\SC(=S)N(CCC(=O)NCCCN3CCOCC3)C2=O)cc1	-39.3%
O=C(CC(=O)Nc1ccc(F)cc1)Nc1ccc(F)cc1	16.8%
O=C(NCCCN1CCCC1=O)c1cc2nc(-c3ccco3)cc(C(F)(F)F)n2n1	1.05%
O=C(OCc1ccccc1)c1cccnc1Cl	-22.6%
Cc1cccc(OCCn2c(=O)oc3ccc(C)cc32)c1	5.77%
CCc1ccccc1NC(=O)CCNS(=O)(=O)c1cc(Br)cnc1N	-2.58%
O=c1cc(N2CCN(c3ccccc3)CC2)[nH]c(=O)n1Cc1ccc(F)cc1	-25.9%
CCOC(=O)c1sc(=NC(=O)c2ccc(S(=O)(=O)N3CC(C)OC(C)C3)cc2)n(C)c1C (stereo not drawn)	0.13%
O=C(CCNC(=O)N1CCn2c1nc1ccccc12)NCc1ccccc1	2.88%
Cc1ccc(N=Nc2c(N)nn(-c3ccccc3)c2N)cc1	0.257%
COCCn1cc(C(=O)NCCCN2CCC(C)CC2)c2c3ccccc3n(C)c2c1=O	-9.38%
COc1ccc(CCNC(=O)COC(=O)c2ccc(N3CCCC3=O)cc2)cc1	17.2%

Structure (SMILES)	hERG current change (%, negative = inhibition) at 10uM
O=C(Cn1c(=O)oc2ccccc21)Nc1ccc2c(c1)OCCO2	-26.9%
O=S(=O)(NCCc1ccc(F)cc1)c1cccc2cccnc12	-0.538%
O=C(O)CNC(=O)C12CC3CC(CC(Cl)(C3)C1)C2	0.47%
CC(=O)N1CCOc2ccc(S(=O)(=O)N3CCCC(C)C3)cc21 (stereo not drawn)	3.44%
O=C(CSc1nnc(C2CC2)n1C1CC1)c1ccc(F)c(F)c1	-18.9%
Nc1nonc1C(=O)N1CCCC1	10.1%
CCn1c(SCC(=O)c2c(N)n(C)c(=O)n(C)c2=O)nnc1-c1ccccc1	12.2%
O=C(NNS(=O)(=O)c1ccccc1)c1cnn(-c2ccc(Cl)cc2)c1C(F)(F)F	-6.3%
Cc1cc(C)c(C(=O)COC(=O)Cn2cnnn2)cc1C	-3.33%
COC(CN(C)C(=O)C1CCC(CNS(=O)(=O)c2ccc(C)cc2)CC1)OC (stereo not drawn)	4.13%
CC1CN(c2cc(=O)n(-c3ccccc3)c(=O)[nH]2)CC(C)O1 (stereo not drawn)	4.91%
Cc1ccc(S(=O)(=O)Nc2cc(-c3ccccc3)nn2C)cc1	21.1%
COc1cccc(C2(O)CCN(CC(=O)Nc3nc(C)cs3)CC2)c1	20%
NC(=O)CC(NC(=O)Cc1ccc(Br)cc1)c1ccc(NCCN2CCCC2)c([N+](=O)[O-])c1 (stereo not drawn)	-9.92%
CCCc1[nH]nc2c1C(c1ccc(OC)c(CSC3=NCCS3)c1)C(C#N)=C(N)O2 (stereo not drawn)	-7.54%
O=S(=O)(NCCS(=O)(=O)N1CCN(c2ccccc2)CC1)c1ccc(F)cc1	-2.91%
O=C(OCC(=O)c1ccco1)c1ccc2ncsc2c1	-3.11%
CS(=O)(=O)N(CC(=O)N1CCC(C(N)=O)CC1)c1cc(C(F)(F)F)ccc1Cl	10.6%
NC(=O)N/N=C/c1sc(N2CCCCC2)nc1-c1cccs1	-21.2%
O=C(NCC(c1ccco1)N1CCCC1)c1ccc(Cl)cc1 (stereo not drawn)	-22.8%
COc1ccc(CCNC(=O)c2ccc3nc(-c4ccco4)c(-c4ccco4)nc3c2)cc1OC	-0.346%
